# Screen size: about 310,000 compounds; about 2,200 (0.71%) showed an effect of 50% or more. The effect is printed as a negative number. The list shows a part of the results.
# Molecular target: human ether-à-go-go-related gene (hERG) potassium channel (human, UniProt Q12809)
# Experiment: primary screen, population patch clamp on CHO cells stably expressing hERG
# human ether-à-go-go-related gene (hERG) potassium channel, sequence (Q12809 whole entry, looked up): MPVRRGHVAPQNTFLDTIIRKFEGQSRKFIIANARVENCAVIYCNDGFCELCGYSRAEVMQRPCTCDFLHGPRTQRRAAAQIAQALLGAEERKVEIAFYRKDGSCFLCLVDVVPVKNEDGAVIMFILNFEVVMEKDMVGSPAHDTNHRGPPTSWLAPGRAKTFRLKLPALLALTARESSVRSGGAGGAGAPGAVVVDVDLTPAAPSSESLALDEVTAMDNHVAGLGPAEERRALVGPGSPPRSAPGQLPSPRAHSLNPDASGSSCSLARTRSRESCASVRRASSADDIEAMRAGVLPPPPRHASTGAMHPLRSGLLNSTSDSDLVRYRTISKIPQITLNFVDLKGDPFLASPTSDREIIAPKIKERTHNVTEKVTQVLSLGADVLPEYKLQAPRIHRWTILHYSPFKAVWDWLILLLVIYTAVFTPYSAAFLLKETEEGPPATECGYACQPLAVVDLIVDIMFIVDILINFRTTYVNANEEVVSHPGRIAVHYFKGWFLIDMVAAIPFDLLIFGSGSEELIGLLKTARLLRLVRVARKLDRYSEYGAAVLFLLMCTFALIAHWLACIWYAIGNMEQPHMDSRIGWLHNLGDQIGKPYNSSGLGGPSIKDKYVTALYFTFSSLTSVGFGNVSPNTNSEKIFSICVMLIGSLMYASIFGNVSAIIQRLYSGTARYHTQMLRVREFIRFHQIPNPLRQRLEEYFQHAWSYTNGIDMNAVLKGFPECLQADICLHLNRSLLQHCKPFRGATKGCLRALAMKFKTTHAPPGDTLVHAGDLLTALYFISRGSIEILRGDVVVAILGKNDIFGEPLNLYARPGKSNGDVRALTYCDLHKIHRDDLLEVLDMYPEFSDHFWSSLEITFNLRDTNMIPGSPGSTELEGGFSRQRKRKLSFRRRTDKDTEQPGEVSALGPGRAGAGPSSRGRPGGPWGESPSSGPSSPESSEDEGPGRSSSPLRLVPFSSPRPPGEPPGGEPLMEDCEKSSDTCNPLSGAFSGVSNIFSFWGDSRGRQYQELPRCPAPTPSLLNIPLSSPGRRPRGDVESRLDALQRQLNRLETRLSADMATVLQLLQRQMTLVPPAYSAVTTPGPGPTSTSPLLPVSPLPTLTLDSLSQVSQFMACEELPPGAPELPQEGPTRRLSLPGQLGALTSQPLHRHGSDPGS
row,Compound,"hERG current change (%, negative = inhibition) at 1uM [%]"
1,Cn1cc(C(=O)NCc2cccs2)c(=O)c2cc(S(=O)(=O)N3CCCC3)ccc21,-0.439
2,CCNC(=O)c1ccc(NC(=O)CC2SC(N3CCCCC3)=NC2=O)cc1 (centres unmarked),-1.11
3,CCN(CC(=O)NCc1cccs1)C(=O)/C=C/c1ccc(OC)c(OC)c1,4.45
4,CCSc1nnc(N(CCC#N)CCC#N)s1,10.4
5,Cc1ccc(S(=O)(=O)N2CCN(Cc3ccco3)CC2)cc1C,12.5
6,COc1ccc(CN2CCNC(=O)C2CC(=O)N2CCCN(C(C)=O)CC2)cc1OC (centres unmarked),13.6
7,CC(NCc1cccc(Cl)c1Cl)C(O)c1ccccc1.Cl (centres unmarked),7.33
8,COC(=O)c1c(N2C(=O)[C@H]3[C@@H](C2=O)[C@]2(C(=O)Nc4ccccc42)N2CCC[C@@H]32)sc(C)c1C,15.5
9,c1csc(C(c2nnnn2C2CCCC2)N2CCOCC2)c1 (centres unmarked),9.48
10,CC(C)Cn1c(SCC(=O)NCc2ccco2)nnc1-c1ccncc1,15.3
11,Cc1nn(CC(=O)NCc2cccnc2)c(=O)c2ccccc12,15.8
12,O=C(Cc1cccs1)Nc1ccccc1NC(=O)Cc1cccs1,12
13,CCOC(=O)NC(Nc1sc2c(c1C(=O)OC)CCN(C)C2)(C(F)(F)F)C(F)(F)F,-3.98
14,CC(C)CCOc1ccc(C(=O)N2CCCC2C(=O)O)cc1 (centres unmarked),12.8
15,CCOc1ccc(-n2c(C)c(C(C)=O)c3cc(OC(C)=O)ccc32)cc1,9.74
16,O=C(O)c1ccc(NCc2nc3ccccc3n2Cc2ccccc2)cc1,6.28
17,CN(Cc1ccccc1)C(=O)C1CCN(S(=O)(=O)c2ccc(-n3cnnn3)cc2)CC1,-62
18,CC(=O)c1c(C)[nH]c(C(=O)OCC(=O)NCCc2ccc(Cl)cc2)c1C,10.1
19,Cc1nc(-c2cc(-c3ccc(Cl)cc3)no2)cs1,6.57

row,Compound,"hERG current change (%, negative = inhibition) at 1uM [%]"
1,COC(=O)Cn1c(=NC(=O)c2sc3ccccc3c2Cl)sc2cc(S(N)(=O)=O)ccc21,5.81
2,CCC(c1nnnn1Cc1ccc2c(c1)OCO2)N1CCN(c2ccccc2)CC1 (centres unmarked),7.95
3,CCCN1CCN(c2nc(-c3cccs3)nc3ccccc23)CC1,-16.1
4,CCOC(=O)N1CCN(C(=O)c2ccccc2N(C)S(C)(=O)=O)CC1,-4.88
5,CC(=O)NCCC(=O)N1CCCC(C(=O)c2ccc3c4c(cccc24)CC3)C1 (centres unmarked),-0.627
6,CC1=C(C(=O)OC(C)C)C(c2ccc(Br)s2)NC(=O)N1C (centres unmarked),3.8
7,Cc1csc(NC(=O)Cc2c[nH]c3ccccc23)n1,4.75
8,O=C(CSc1nc2ccccc2c(=O)[nH]1)c1ccccc1,8.5
9,O=C(OCC(=O)N1CCCc2ccccc21)c1ccccc1NCCO,2.37
10,O=C1OCCC1Sc1nnc(-c2ccccc2)o1 (centres unmarked),-9.84
11,CSc1ccccc1NC(=O)Nc1ccc(Cl)cc1,-2.15
12,CSc1nc(C)c2c(n1)N(c1cccc(C)c1)CC2,19.1
13,CN(Cc1ccc(C(F)(F)F)cc1)C(=O)C1CCC(=O)N(C2CC2)C1 (centres unmarked),-21
14,O=C(CCSc1ccccc1)NCCSCc1ccccc1,9.36
15,C=CCN(C(=O)CCC(=O)Nc1cc(C)on1)C(C(=O)NC(C)(C)CC)c1cccc(OC)c1OC (centres unmarked),12.2
16,COc1cccc(C(=O)/C=C2\NCCc3cc(OC)c(OC)cc32)c1,7.07
17,CCc1nnc(SCC(=O)N2CCCc3ccccc32)nc1CC,5.51
18,CCOC(=O)NC(Cc1c[nH]c2ccccc12)C(=O)NCCc1ccc(S(N)(=O)=O)cc1 (centres unmarked),17.7
19,CC(NC(=O)COC(=O)c1ccc([N+](=O)[O-])s1)c1ccccc1 (centres unmarked),0.147

row,Compound,"hERG current change (%, negative = inhibition) at 1uM [%]"
1,COCCn1c(C)cc(C(=O)COC(=O)c2ccc[nH]c2=O)c1C,19.1
2,O=C(c1cc([N+](=O)[O-])ccc1Cl)N1CCN(c2ccc(F)cc2)CC1,0.85
3,CC1CN(C(=O)c2ccc(COc3ccccc3Cl)o2)CC(C)O1 (centres unmarked),26
4,COc1ccc(N2CCCn3c2nc2c3c(=O)n(Cc3ccccc3F)c(=O)n2C)c(OC)c1,7.09
5,CCN(CC)S(=O)(=O)c1ccc2[nH]c(=O)cc(C(=O)Nc3cccc(C(C)=O)c3)c2c1,11.5
6,O=C(CN1C2CCCC1CC(NC(=O)C1CCCCC1)C2)Nc1ccccc1 (centres unmarked),3.32
7,COc1ccc2oc(C(=O)N3CCN(C/C=C/c4ccccc4)CC3)c(C)c2c1,2.51
8,COC(=O)/C=C\C(=O)Nc1cccc([N+](=O)[O-])c1,8.24
9,COc1ccccc1CN(C)CC(=O)Nc1ccc(Cl)cc1C(F)(F)F.O=C(O)C(=O)O,4.83
10,COc1ccc(NC(=O)c2ccc(CNc3c(NC4CCCCC4)c(=O)c3=O)cc2)c(OC)c1,7.68
11,FC(F)(F)c1ccccc1NC(=S)N1CCN(c2ccccn2)CC1,5.11
12,Cl.O=C(NCCc1ccccn1)c1cc(-c2ccc(Cl)c(Cl)c2Cl)nc2ccccc12,11.1
13,N#CSc1ccc2oc(C3=NCCN3)cc2c1,10.7
14,Cc1ccc(-c2nnc(SCC(=O)NNC(=O)COc3ccccc3C)n2C)cc1,7.06
15,NC(=O)c1c(NC(=O)c2cccnc2Cl)sc2c1CCCC2,6.66
16,O=C(Cn1c(=O)n(Cc2ccc(F)cc2)c(=O)c2ccccc21)NCC1CCCO1 (centres unmarked),10.1
17,O=C(COC(=O)c1ccccc1SCC(=O)N1CCCC1)NCc1ccccc1,10.7
18,CCn1c(CCNC(=O)c2ccc(Cl)cc2Cl)n[nH]c1=S,1.65
